# Test results: PubChem BioAssay AID485294 (National Center for Advancing Translational Sciences (NCATS), 2010)
# Out of some 370,000 compounds screened, about 150 (0.041%) were called active. The inconclusive results got no clear call from the source; some entries with a clear call stand among them for comparison. Calls come from the whole dose curve; as a rule, active = well fitted inhibition curve with a large enough effect; inconclusive = small, poorly fitted or top-dose-only effect; inactive = flat fitted curve, though single readings scatter. No potency is given beside an inconclusive call; the fits are too rough.
# Target: Beta-lactamase (Escherichia coli (strain K12)) (UniProt P00811)
# Chain of UniProt P00811 (P00811 whole entry, looked up): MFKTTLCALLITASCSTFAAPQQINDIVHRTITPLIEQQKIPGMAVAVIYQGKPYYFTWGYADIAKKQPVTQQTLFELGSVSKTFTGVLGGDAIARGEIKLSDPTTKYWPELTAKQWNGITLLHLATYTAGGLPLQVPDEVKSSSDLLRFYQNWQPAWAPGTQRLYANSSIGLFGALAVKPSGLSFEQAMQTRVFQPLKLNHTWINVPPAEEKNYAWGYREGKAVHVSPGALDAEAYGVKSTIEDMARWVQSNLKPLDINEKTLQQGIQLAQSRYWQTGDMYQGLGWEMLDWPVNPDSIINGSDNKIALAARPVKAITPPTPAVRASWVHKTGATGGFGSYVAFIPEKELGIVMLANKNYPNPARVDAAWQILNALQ
# Test: qHTS Inhibitors of AmpC Beta-Lactamase (assay with detergent); note: nearly all actives have a fitted effect of over 25% in size
# Settings: AmpC hydrolysis of nitrocefin, absorbance 480 nm, 0.01% Triton; series mostly up to 114 µM
# How it was run: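 20 mM phosphate pH 7.0 + 0.01% (detergent screen) or 0.0001% Triton X-100; 5.3 nM AmpC reagent; cpd preinc 15 min RT; nitrocefin (800 uM stock) to start; A480 q20 s × 4 min; Activity was normalised to no-enzyme and no-compound control wells.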
# Potency is the fitted concentration of half-maximal effect; tags give direction and shape of the fitted curve.
row,SMILES,Potency
1,CCCOc1ccc(C2Nc3cccc4cccc(c34)N2)cc1,inactive
2,O=C(Nc1cccc(Cl)c1Cl)c1cc2nc(-c3ccc(Cl)cc3)cc(C(F)(F)F)n2n1,inactive
3,CCCCCCCCCCCCCCCC[n+]1ccc(C(N)=O)cc1,inactive
4,O=C(Cc1cccs1)N1CCN=C1SCc1ccccc1F,"inconclusive [inhibitor, full curve, poor fit]"
5,O=c1oc(-c2ccco2)nc2sc3c(c12)CCCC3,"inconclusive [inhibitor, partial curve]"
6,Cc1ccc(C(C(=O)NC(C)(C)C)N(Cc2ccccc2)C(=O)c2snc(C(N)=O)c2N)o1 (stereo not drawn),"inconclusive [inhibitor, full curve, poor fit]"
7,COc1cc(CNCCO)cc(Br)c1OCc1cccs1,"inconclusive [inhibitor, partial curve, poor fit]"
8,Cc1nc2ccccc2c(=O)n1-c1ccccn1,"inconclusive [inhibitor, full curve]"
9,CN(C(=O)CSc1nc2cc(C(=O)O)ccc2c(=O)n1Cc1ccccc1)C1CCS(=O)(=O)C1 (stereo not drawn),"inconclusive [inhibitor, full curve, poor fit]"
10,O=C(CSc1nnnn1C1CCCC1)NCCc1ccccc1,"inconclusive [inhibitor, partial curve]"
11,CSc1cccc(NC(=O)CC(c2cccs2)N2Cc3ccccc3C2=O)c1 (stereo not drawn),inactive
12,COCCNC(=O)C(c1ccc(C)cc1)N(C(=O)CCC(=O)Nc1ccccn1)c1ccccc1C (stereo not drawn),inactive
13,Cc1ccc(CNC(=O)CS(=O)(=O)Cc2nc(-c3ccccc3F)oc2C)cc1,"inconclusive [inhibitor, partial curve, poor fit]"
14,O=C1CC(C(=O)O)(c2ccccc2)c2cccc(F)c21 (stereo not drawn),inactive
15,CC(C)c1ccc(NC(=O)NCc2ccccn2)cc1,inactive
16,CC1CCN(C(=O)COC(=O)/C=C/c2ccc(Br)o2)CC1,inactive
17,CCN1CCCC1CN(Cc1cc2ccc(C)cc2[nH]c1=O)C(=S)Nc1ccc(OC)cc1OC (stereo not drawn),"inconclusive [inhibitor, single point]"
18,Cc1nn(CC(=O)NCCCN2CCN(Cc3ccccc3)CC2)c(=O)c2cc(-c3ccccc3)nn12,"inconclusive [inhibitor, single point]"
19,CCOc1ccc(-n2cc(C(=O)N3CCCCCC3)c3cc(OC)c(OC)cc3c2=O)cc1,"inconclusive [inhibitor, partial curve, poor fit]"
20,Cc1cc(C)n2c(Br)c(CN3CC4CC(C3)c3cccc(=O)n3C4)nc2n1 (stereo not drawn),"inconclusive [inhibitor, full curve, poor fit]"
21,Cc1cc(C)n(CC(=O)NCc2cc(-c3nn(C)c(=O)c4ccccc34)ccc2C)n1,"inconclusive [inhibitor, full curve, poor fit]"
22,Cc1[nH]n(-c2ccccc2)c(=O)c1N=Nc1ccccc1,inactive

row,SMILES,Potency
1,COC(=O)C(=Nc1ccccc1)/C(C(=O)C(=O)N(C)c1ccccc1)=C(\O)c1ccc(Cl)cc1,"inconclusive [inhibitor, single point]"
2,Cc1ccccc1OCC(=O)Nc1ccccc1-c1ccccc1NC(=O)COc1ccccc1C,inactive
3,CCN(CC)CCNC(=O)c1cc(-c2ccc(Br)s2)nc2ccccc12,"inconclusive [inhibitor, full curve, poor fit]"
4,COc1ccc(N=c2oc3c(OC)cccc3cc2C(=O)NCc2ccco2)cc1OC,inactive
5,CCOc1ccccc1OCCn1ncc2ccc(OC)c(OC)c2c1=O,"inconclusive [inhibitor, single point]"
6,CCCCCCNC(=O)c1c(O)c2ccccc2[nH]c1=O,"inconclusive [inhibitor, partial curve]"
7,Cc1nc(NCC2CCCO2)c2oc3ccccc3c2n1 (stereo not drawn),"inconclusive [inhibitor, full curve, poor fit]"
8,Cc1cccc(C)c1NC(=O)CN(C)C(=O)CN1C(=O)NC2(CCCC2)C1=O,"inconclusive [inhibitor, full curve, poor fit]"
9,COc1ccc(-c2cn3nc4c(nc3n2)CCCC4)cc1,inactive
10,O=c1[nH]c(=O)n(Cc2ccco2)c2c1C(C(F)(F)F)(C(F)(F)F)N=C(CCc1ccccc1)N2,"inconclusive [inhibitor, partial curve, poor fit]"
11,COc1ccc(-n2c(/C=C/c3ccc(O)c(OC)c3)nc3ccccc3c2=O)cc1,inactive
12,CCn1c(COC(=O)CNC(=O)c2ccccc2)nc2cc(S(=O)(=O)N(C)C)ccc21,"inconclusive [inhibitor, full curve]"
13,Nc1nsnc1C(=O)NCCO,"inconclusive [inhibitor, full curve, poor fit]"
14,Cc1nn(-c2ccccc2)c(Cl)c1C1C(C#N)=C(N)Oc2c1c(C)nn2-c1ccccc1 (stereo not drawn),inactive
15,COc1ccc2oc(C(=O)OCC(=O)Nc3ccc(C(=O)N(C)C)cc3)c(C)c2c1,inactive
16,CCCC(=O)N1CCN(c2ccc(NC(=O)c3ccc(Br)o3)cc2)CC1,inactive
17,C[C@@H]1C=C[C@](Cc2ccccc2)(C(=O)NCC2CC2)N1C(=O)c1ccccc1,"inconclusive [inhibitor, partial curve, poor fit]"
18,Cc1cccc(NC(NC(=O)c2ccccc2[N+](=O)[O-])C(Cl)(Cl)Cl)c1 (stereo not drawn),"inconclusive [inhibitor, full curve, poor fit]"
19,CCOC(=O)c1sc2nc(SCC(=O)NCc3ccco3)n(Cc3ccccc3)c(=O)c2c1C,"inconclusive [inhibitor, partial curve, poor fit]"
20,Cc1cc(/C=C(/C#N)c2cccc(F)c2)c(C)n1-c1cccnc1,"inconclusive [inhibitor, partial curve]"
21,COC(OC)c1ccc(C#N)c(=O)[nH]1,"inconclusive [inhibitor, full curve, poor fit]"
